{
  "source": "paper PMC11849630",
  "about": "“Tau destabilization in a familial deletion mutant K280 accelerates its fibrillization and enhances the seeding effect” (The Journal of Biological Chemistry, 2025)",
  "target": "T1, recombinant full-length human wild-type tau (tau 441, 2N4R), without additional tags (human, UniProt P10636-8 1-441)",
  "T1 construct": "microtubule-associated protein tau, human, longest isoform (tau 441, 2N4R, 441 amino acids), full length; subcloned from pRK5-EGFP-tau (Addgene) into pET-29b(+) by NdeI and EcoRI; Used as freshly prepared monomer (AUC, ThT assays) and, after 4 d with heparin and sonication, as preformed fibril seeds; also called WT tau; WT; source: E. coli BL21 (DE3), pET-29b, purified (boiling, SP Sepharose HP, …)",
  "assay": "ThT seeding assay + TEM + FTIR; 5 μM tau monomer in 20 mM Tris buffer with 5% v/v sonicated preformed fibril seeds, 10 μM ThT, heparin at tau-to-heparin 4:1, 25 °C; monomer is the binder, seeds the target",
  "conditions": "both partners purified",
  "data": [
    {"binder": "recombinant full-length human tau ΔK280 mutant (tau 441 with deletion of lysine 280), without additional tags (natural protein, microtubule-associated protein tau, human, longest isoform (tau 441, 2N4R), full length, familial deletion of K280 made by site-directed mutagenesis; Used as freshly prepared monomer and as sonicated preformed fibril seeds; also called ΔK280 seeds; mutant seeds; source: E. coli BL21 (DE3), pET-29b, purified (boiling, SP Sepharose HP, Heparin HP)) not shown", "values": [
      {"measurement": "binding result", "result": "binds"}
    ]}
  ]
}
